Reference: PubChem BioAssay AID1347071 (National Center for Advancing Translational Sciences (NCATS), 2019)
Hit rate of the full screen: of about 410,000 compounds, about 260 (0.063%) were called active. The shares of active, inactive and inconclusive entries below differ from those in the screen. Calls follow the shape of the dose curve; as a rule, active = well fitted activation curve with a large enough effect; inconclusive = small, poorly fitted or top-dose-only effect; inactive = no such curve, though single readings can be large or run the other way. No potency is given beside an inconclusive call; the fits are too rough.

Assay: qHTS for compounds that reverse cellular toxicity of Amyloid beta (A-beta) peptide in yeast: Primary Screen; also: nearly all actives have a fitted effect of over 55% in size
Settings: yeast expressing A-beta42, growth rescue, OD600, 48 h; growth rescue: at 46.1 µM (top of the series), 0% DMSO, 100% iron-clioquinol control
Procedure, shortened: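 Growth rescue measured by 600 nm absorbance after 48 h yeast culture at 30 C with compound. Values normalized between DMSO and an equimolar ferric chloride plus clioquinol control.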
Potency is read from the fitted curve at half-maximal effect; tags tell the direction and shape of the fitted curve.

With Cc1cc(C)nc(SCc2ccc(C(=O)N/N=C/c3cccc(O)c3O)cc2)n1 as the compound, how does the Potency read?
Its Potency is inconclusive [activator, single point].

For COc1ccc(NC(=O)C23CC4CC(C2)CC(c2ccc(C)cc2)(C4)C3)cc1, which Potency is on record?
The Potency was inconclusive [activator, full curve, poor fit].

Which Potency does the source give for COc1ccccc1NC(=O)COC(=O)/C=C/c1ccccc1[N+](=O)[O-] here?
Its Potency is inconclusive [activator, partial curve, poor fit].

With Cc1ccccc1OCCNC(=S)Nc1ccccc1 as the compound, how does the Potency read?
Its Potency is inconclusive [activator, full curve, poor fit].

For Oc1c(CNc2ccccc2)cc(COCc2ccccc2)c2cccnc12, which Potency is on record?
The Potency was inconclusive [activator, single point].

Which Potency does the source give for O=C(NC(=S)NC12CC3CC(CC(C3)C1)C2)c1ccc(F)cc1 here?
The Potency was inconclusive [activator, partial curve].

For CCC(=O)NNC(=S)NC(=O)c1ccc(C)cc1, which Potency is on record?
Its Potency is inconclusive [activator, partial curve, poor fit].

With S=C(NCCc1ccc(Cl)cc1)NCc1ccco1 as the compound, how does the Potency read?
The Potency was inconclusive [activator, single point].

Which Potency does the source give for N#C/C(=C\c1ccccc1)C(=O)Nc1cccnc1 here?
Its Potency is inconclusive [activator, partial curve, poor fit].

With O=C(Oc1ccc(Cl)c2ccccc12)N1CCCCC1 as the compound, how does the Potency read?
Its Potency is “inactive”.

For O=C(O)CC(C(=O)O)c1cn(Cc2ccccc2)c2ccccc12 (stereo not given), which Potency is on record?
The Potency was inconclusive [activator, partial curve, poor fit].

For CCOc1ccc(NC(=S)N2C3CCCC2CC(NC(=O)C2CC2)C3)cc1 (stereo not given), which Potency is on record?
Its Potency is “inactive”.

For COc1ccc(-c2nc(Cn3c(SCc4ccccc4F)nc4ccncc43)c(C)o2)cc1, which Potency is on record?
The Potency was “inactive”.

Which Potency does the source give for COc1cccc(-c2nc(NCC3CCCO3)c3ccccc3n2)c1O (stereo not given) here?
The Potency was “inactive”.

Which Potency does the source give for Cc1ccc(-c2nc3sc(CCNS(=O)(=O)c4cc(F)ccc4F)c(C)n3n2)cc1 here?
Its Potency is inconclusive [activator, partial curve, poor fit].

Which Potency does the source give for CCCCNC(=S)N=Nc1c(O)[nH]c2ccccc12 here?
Its Potency is “inactive”.

With CC1(C)N=c2ccc([N+](=O)[O-])c(N)c2=[N+]1[O-] as the compound, how does the Potency read?
The Potency was “inactive”.

With O=C1C(Cc2ccccc2)NC(=S)N1c1ccccc1 (stereo not given) as the compound, how does the Potency read?
The Potency was inconclusive [activator, single point].

Which Potency does the source give for COc1ccc(OCCn2cnc(Cl)c2Cl)cc1 here?
Its Potency is “inactive”.

For O=C(CN1CCN(CC(=O)Nc2ccccc2F)CC1)Nc1ccc2c(c1)OCCO2, which Potency is on record?
The Potency was “inactive”.
